Target: T1, human insulin receptor extracellular domain (HIR ECD) (human, UniProt P06213 28-956, limits assumed)
T1 construct: extracellular domain; Purified on a wheat germ agglutinin column from serum free medium of CHO cells permanently transfected with the HIR ECD (Coloma et al. 2000)
Assay: ELISA, HIR ECD plated, detection with biotinylated goat anti-human IgG

B1: HIR Ab-GUSB fusion protein (GUSB fused to the carboxyl terminus of the HIR Ab heavy chain) (other, human)
heavy: QVQLQQSGPELVKPGALVKISCKASGYTFTNYDIHWVKQRPGQGLEWIGWIYPGDGSTKYNEKFKGKATLTADKSSSTAYMHLSSLTSEKSAVYFCAREWAYWGQGTLVTVSA[human IgG1 constant region left out]SSLQGGMLYPQESPSRECKELDGLWSFRADFSDNRRRGFEEQWYRRPLWESGPTVDMPVPSSFNDISQDWRLRHFVGWVWYEREVILPERWTQDLRTRVVLRIGSAHSYAIVWVNGVDTLEHEGGYLPFEADISNLVQVGPLPSRLRITIAINNTLTPTTLPPGTIQYLTDTSKYPKGYFVQNTYFDFFNYAGLQRSVLLYTTPTTYIDDITVTTSVEQDSGLVNYQISVKGSNLFKLEVRLLDAENKVVANGTGTQGQLKVPGVSLWWPYLMHERPAYLYSLEVQLTAQTSLGPVSDFYTLPVGIRTVAVTKSQFLINGKPFYFHGVNKHEDADIRGKGFDWPLLVKDFNLLRWLGANAFRTSHYPYAEEVMQMCDRYGIVVIDECPGVGLALPQFFNNVSLHHHMQVMEEVVRRDKNHPAVVMWSVANEPASHLESAGYYLKMVIAHTKSLDPSRPVTFVSNSNYAADKGAPYVDVICLNSYYSWYHDYGHLELIQLQLATQFENWYKKYQKPIIQSEYGAETIAGFHQDPPLMFTEEYQKSLLEQYHLGLDQKRRKYVVGELIWNFADFMTEQSPTRVLGNKKGIFTRQRQPKSAAFLLRERYWKIANET
light: DIQMTQSPSSLSASLGERVSLTCRASQDIGGNLYWLQQGPDGTIKRLIYATSSLDSGVPKRFSGSRSGSDYSLTISSLESEDFVDYYCLQYSSSPWTFGGGTKMEIKRTVAAPSVFIFPPSDEQLKSGTASVVCLLNNFYPREAKVQWKVDNALQSGNSQESVTEQDSKDSTYSLSSTLTLSKADYEKHKVYACEVTHQGLSSPVTKSFNRGEC
notes: range 23-633; also called HIRMAb-GUSB fusion protein; pCD-HC-GUSB with pCD-LC
B1 was tested, and the EC50 was 0.81 nM.

— US20180251535A1 (ARMAGEN, published 2018)
